Data published in patent publication US20220401523A1 (Sanofi, published 2022).

Biological target: human glucagon-like peptide-1 (GLP-1) receptor (human, UniProt P43220 24-463)
Assay: cell-based or functional assay

Sequence of UniProt P43220 (P43220 24-463): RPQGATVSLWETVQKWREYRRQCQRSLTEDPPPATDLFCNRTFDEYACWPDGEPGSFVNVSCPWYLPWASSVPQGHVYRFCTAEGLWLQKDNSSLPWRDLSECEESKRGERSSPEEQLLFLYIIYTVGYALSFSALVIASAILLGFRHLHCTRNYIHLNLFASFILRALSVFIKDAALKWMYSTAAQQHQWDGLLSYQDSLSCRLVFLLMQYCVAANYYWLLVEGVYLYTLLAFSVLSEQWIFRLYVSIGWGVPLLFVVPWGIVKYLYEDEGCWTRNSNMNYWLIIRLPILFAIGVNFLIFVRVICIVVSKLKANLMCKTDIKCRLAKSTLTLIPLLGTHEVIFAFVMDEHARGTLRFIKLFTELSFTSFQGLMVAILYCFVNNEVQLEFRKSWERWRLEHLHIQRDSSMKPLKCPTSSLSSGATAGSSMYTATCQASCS

| Binder | EC50 of cAMP response (HTRF) | Ratio GLP-1R agonistic activity: native GLP-1(7-36)/tested GLP-1R agonist |
| --- | --- | --- |
| GLP1(7-36) insG, A8G, V16L, S18I, Y19Q, G22E, Q23E, A25V, K26R, E27L, A30E, V33L, K34A, R36G, insPKK (Fc fusion) GHGEGTFTSDLSIQLEEEAVRLFIEWLLAGGPKKQRLSGGGGGGGSGGGGSGGGGSA[sequence of human IgG4 Fc with changes omitted]GGGSGSAHPIPDSSPLLQFGGQVRQRYLYTDDACQTEAHLEIREDGTVGGAADQSPESLLQLKALKPGVIQILGVKTSRFLCQRPDGALYGSLHFDPEACSFRELLLEDGYNVYQSEAHGLPLHLPGCKSPHRDPAPRGPARFLPLPGLPPAPPEPPGILAPQPPDVGSSDPLSMVGSQGRSPSYAS | 14.6 pM | 18.9 fold |
| GLP1(7-36) A8G, V16L, S18K, Y19Q, G22E, Q23E, A25V, K26Q, E27L, A30E, V33L, K34A, G35T, R36G_[19GS]_ (Fc fusion) HGEGTFTSDLSKQLEEEAVQLFIEWLLATGGGGGGGGSGGGGSGGGGSA[sequence of human IgG4 Fc with changes omitted]GGGSGSAHPIPDSSPLLQFGGQVRQRYLYTDDACQTEAHLEIREDGTVGGAADQSPESLLQLKALKPGVIQILGVKTSRFLCQRPDGALYGSLHFDPEACSFRELLLEDGYNVYQSEAHGLPLHLPGCKSPHRDPAPRGPARFLPLPGLPPAPPEPPGILAPQPPDVGSSDPLSMVYPSQGRSPSYAS | 63 pM | 81.9 fold |
